PubChem BioAssay AID902 (National Center for Advancing Translational Sciences (NCATS), 2007)
In all, about 130,000 compounds went through this assay and about 1,900 (1.5%) were called active. The shares of active, inactive and inconclusive entries below differ from those in the screen. Calls come from the whole dose curve; as a rule, active = well fitted cell-killing curve with a large enough effect; inconclusive = small, poorly fitted or top-dose-only effect; inactive = no such curve, though single readings can be large or run the other way. Where the call is inconclusive, the potency comes from a doubtful curve fit.
% is set by controls: 0 for no effect and ±100 for the full control effect; potency is the fitted concentration of half-maximal effect; tags give direction and shape of the fitted curve.

Assay: qHTS Screen for Compounds that Selectively Target Cancer Cells with p53 Mutations: Cytotoxicity of p53ts Cells at the Nonpermissive Temperature; note: nearly all actives have a fitted effect of over 55% in size
Conditions: H1299-p53A138V viability at 39C, ATP luminescence, 24 h; activity change, negative = cell killing: at 46.1 µM (top of the series)
In the case of `C=CCn1cnc2c(c1=O)c1nc3ccccc3nc1n2/N=C/c1cc(OC)c(OC)c(OC)c1`, the “activity change, negative = cell killing” value is reported as inactive: 5.19%.
In the case of `c1ccc2c(c1)OCC(CNc1ncnc3sccc13)O2` (stereo not drawn), the Potency is reported as inconclusive: 35.5 µM [cytotoxic, single point].
For `CN(C)c1ccc(-c2nc3ccc(Cl)cn3c2Nc2ccc3c(c2)OCCO3)cc1`, the Potency was inconclusive: 2.51 µM [cytotoxic, full curve, poor fit].
With `COCCn1c(=O)c(-c2ccc(OC)cc2)nc2cnc(N3CCOCC3)nc21` the “activity change, negative = cell killing” value was inactive: -0.867%.
With `CCC(C)[C@@H](C(=O)Nc1ccc2c(c1)OCO2)N1Cc2ccccc2C1=O` (stereo partly drawn) the “activity change, negative = cell killing” value was inactive: 1.68%.
With `Cn1ccnc1SCc1cn2cc(Br)ccc2n1` the Potency was inconclusive: 12.6 µM [cytotoxic, partial curve].
In the case of `Nc1nonc1-c1nc2ccccc2n1CC(=O)Nc1cccc(C(F)(F)F)c1`, the Potency is reported as inconclusive: 31.6 µM [cytotoxic, single point].
With `Cc1ccc2cc(CCNC(=O)c3ccco3)c(=O)[nH]c2c1C` the Potency was inconclusive: 1.26 µM [cytotoxic, full curve].
For `CCCCS/C(=C(/C#N)C(N)=O)c1cc2c([nH]1)CCCC2`, the “activity change, negative = cell killing” value was inactive: 124%.
With `CCC(=O)Nc1ccc(NC(=O)c2ccccn2)cn1` the Potency was inconclusive: 10 µM [cytotoxic, partial curve].
For `Cc1ccc(NC(=O)c2ccc(OC(=O)c3ccco3)cc2)cc1`, the Potency was inconclusive: 12.6 µM [cytotoxic, single point].
With `Oc1ccccc1-c1cc(-c2ccc3c(c2)OCCO3)n[nH]1` the Potency was inconclusive: 12.6 µM [cytotoxic, partial curve].
In the case of `COc1ccc2[nH]cc(CCNc3nc(-c4ccccc4OC)nc4ccccc34)c2c1`, the Potency is reported as inconclusive: 20 µM [cytotoxic, single point].
With `Cc1cc(-n2c(C)cc(C(=O)CSc3nnnn3-c3ccc(Cl)cc3)c2C)no1` the Potency was inconclusive: 12.6 µM [cytotoxic, partial curve].
For `Cc1ccc(N(CC(=O)Nc2ccc(F)c(Cl)c2)S(=O)(=O)c2c(C)noc2C)cc1`, the Potency was inconclusive: 25.1 µM [cytotoxic, partial curve].
In the case of `N=C(N)SCC(=O)O`, the activity change, negative = cell killing is reported as inactive: 5.13% [at 9.22 µM].
With `C=CCOc1c(CNc2nccs2)cccc1OCC` the Potency was inconclusive: 12.6 µM [cytotoxic, partial curve].
With `O=C(Nc1ccc(Br)cc1)c1cc(S(=O)(=O)N2CCc3ccccc32)ccc1F` the Potency was inconclusive: 20 µM [cytotoxic, single point].
For `COc1ccc(-c2nc(-c3ccccc3)no2)c(OC)c1`, the Potency was active: 6.31 µM.
For `Cc1ccc(NC(=O)Cn2c(=O)n(CC(=O)NCCc3ccccc3)c(=O)c3ccccc32)cc1`, the Potency was inconclusive: 25.1 µM [cytotoxic, single point].
For `COc1ccc(C)cc1-n1c(SCC(=O)NCc2ccco2)nc2c([nH]c3ccccc32)c1=O`, the Potency was inconclusive: 0.126 µM [cytotoxic, full curve, poor fit].
With `O=C(NCC1COc2ccccc2O1)c1ccccc1` (stereo not drawn) the “activity change, negative = cell killing” value was inactive: 1.16%.
With `CNC(=O)C1CCC(Cn2c(=O)c3sccc3n(CC(=O)Nc3ccccc3)c2=O)CC1` (stereo not drawn) the “activity change, negative = cell killing” value was inactive: -5.07%.
In the case of `CC(C)c1ccc(NC(=O)c2cc(S(=O)(=O)NCCc3ccccc3)ccc2F)cc1`, the Potency is reported as inconclusive: 10 µM [cytotoxic, partial curve].
For `COc1ccc(C(C)C)cc1S(=O)(=O)NCCc1c(C)[nH]c2c(Cl)cccc12`, the Potency was inconclusive: 10 µM [cytotoxic, partial curve].
With `O=C(O)CCC(=O)N1CCc2cc(S(=O)(=O)Nc3ccc4c(c3)OCCO4)ccc21` the “activity change, negative = cell killing” value was inactive: 6.86%.
With `Cc1cc(C(=O)Nc2cccc(C(=O)O)c2)oc1C` the Potency was inconclusive: 10 µM [cytotoxic, partial curve].
For `CCC1CCCCN1S(=O)(=O)c1ccc(C(=O)Nc2nnc(-c3ccccc3Cl)o2)cc1` (stereo not drawn), the Potency was inconclusive: 3.16 µM [cytotoxic, full curve].
In the case of `COc1ccccc1/C=N/Nc1nncc2ccccc12`, the “activity change, negative = cell killing” value is reported as inactive: -7.51%.
With `COc1ccc2[nH]cc(C(=O)CN3CCCCC3)c2c1` the “activity change, negative = cell killing” value was inactive: 0.241%.
In the case of `COc1ccc(Cc2c(C)nn(-c3nc(C)c(C(=O)Nc4cccc(C(C)=O)c4)s3)c2C)cc1`, the Potency is reported as inconclusive: 5.01 µM [cytotoxic, partial curve].
For `COc1ccccc1-c1cc(NCc2ccccc2)ncn1`, the Potency was inconclusive: 7.94 µM [cytotoxic, partial curve].
With `C=CCn1c(/N=C/c2ccc(N(C)C)cc2)nc2ccccc21` the “activity change, negative = cell killing” value was inactive: -5.72%.
With `CCCCCCCCNC(C)C(O)c1ccc(SC(C)C)cc1` (stereo not drawn) the Potency was active: 20 µM.
With `CCOc1ccc(NS(=O)(=O)c2ccc3[nH]cc(C(=O)NCc4ccccc4)c(=O)c3c2)cc1` the Potency was inconclusive: 31.6 µM [cytotoxic, single point].
With `Cn1cc(C(=O)c2ccc(F)cc2)cc1-c1nc2ccccc2n1C` the “activity change, negative = cell killing” value was inactive: -3.06%.
With `CCCCCNC(=O)c1ccc2c(c1)nc(C)n2-c1cccc(C)c1` the Potency was active: 20 µM.
For `O=C(CCn1c(=O)c2cccn2c2ccccc21)Nc1ccc(F)cc1`, the Potency was inconclusive: 20 µM [cytotoxic, single point].
In the case of `O=C1C2=C(Nc3ccccc3SC2c2ccccc2C(F)(F)F)c2ccccc21` (stereo not drawn), the Potency is reported as inconclusive: 3.16 µM [cytotoxic, partial curve].
For `COc1ccccc1NC(=O)c1cc2c([nH]c1=O)CC(C)(C)CC2=O`, the Potency was inconclusive: 12.6 µM [cytotoxic, partial curve].
With `CCCCCN=c1ccn(Cc2ccccc2)c2ccccc12` the Potency was inconclusive: 15.8 µM [cytotoxic, partial curve, poor fit].
In the case of `COc1cc2c(cc1OC)[C@@H]1C(=O)c3ccc4c(c3O[C@@H]1CO2)C=CC(C)(C)O4`, the Potency is reported as inconclusive: 6.31 µM [cytotoxic, partial curve].
In the case of `NCc1ccc(C(=O)O)cc1`, the activity change, negative = cell killing is reported as inactive: -0.992% [at 9.22 µM].
For `COc1ccc(-c2nnc3c4ccccc4c(-c4ccccc4)nn23)cc1`, the Potency was inconclusive: 31.6 µM [cytotoxic, single point].
With `CCOc1ccc(CCNC(=O)c2cccc(-n3c(C)nc4cccnc43)c2)cc1` the Potency was inconclusive: 0.0562 µM [cytotoxic, full curve, poor fit].
With `O=C(Nc1ccccc1F)c1ccc(-c2ccccc2)s1` the Potency was inconclusive: 12.6 µM [cytotoxic, partial curve].
For `O=C(COc1ccc(Cl)cc1)NCCc1csc(-c2ccc(F)cc2)n1`, the Potency was inconclusive: 20 µM [cytotoxic, single point].
With `CC1Cc2cc(S(=O)(=O)N(C)c3ccc(Br)cc3)ccc2N1C(=O)C1CC1` (stereo not drawn) the “activity change, negative = cell killing” value was inactive: 2.19%.
For `Cc1ccc(C(=O)Nc2ccc3c(c2)ncn3C)cc1`, the Potency was inconclusive: 12.6 µM [cytotoxic, partial curve].
With `CN(C)S(=O)(=O)c1cccc(C(=O)NCCc2ccccc2)c1` the Potency was inconclusive: 10 µM [cytotoxic, partial curve].
In the case of `O=C(CCn1nc(-c2ccc(Cl)cc2)c2ccccc2c1=O)Nc1ccc(OC(F)(F)F)cc1`, the Potency is reported as inconclusive: 31.6 µM [cytotoxic, single point].
With `CN(C)S(=O)(=O)c1ccc(N2CCN(S(=O)(=O)c3ccc(F)cc3)CC2)c(Cl)c1` the Potency was inconclusive: 12.6 µM [cytotoxic, partial curve].
In the case of `O=C(CSc1nccn1Cc1ccccc1)Nc1ccc2c(c1)OCO2`, the Potency is reported as inconclusive: 1.58 µM [cytotoxic, full curve].
With `CC(=O)N1c2ccc(S(=O)(=O)N3CCCCCC3)cc2CC1C(=O)NCc1ccccc1F` (stereo not drawn) the Potency was inconclusive: 31.6 µM [cytotoxic, single point].
With `CCc1ccc(C2c3c(-c4cc(C)ccc4O)n[nH]c3C(=O)N2Cc2cccnc2)cc1` (stereo not drawn) the Potency was inconclusive: 31.6 µM [cytotoxic, single point].
In the case of `CCOC(=O)c1c(S(=O)(=O)N2CCC(C(=O)Nc3ccc(OCC)cc3)CC2)c(C)n(C)c1C`, the Potency is reported as inconclusive: 31.6 µM [cytotoxic, partial curve, poor fit].
With `c1ccc(-c2ccc(-c3nc(-c4ccccn4)no3)cc2)cc1` the Potency was active: 3.16 µM.
For `Cc1ccc(-c2nc3ccccc3[nH]2)cc1NC(=O)COc1cccc(C)c1C`, the Potency was inconclusive: 7.94 µM [cytotoxic, partial curve].
In the case of `CN(c1cccc(NC(=O)COc2ccccc2)c1)S(C)(=O)=O`, the Potency is reported as inconclusive: 12.6 µM [cytotoxic, partial curve].
With `COc1ccc(C)cc1NC(=O)CC(=O)Nc1ccc2nc3n(c(=O)c2c1)CCCCC3` the Potency was inconclusive: 31.6 µM [cytotoxic, single point].
With `COC(=O)Cn1ncn2c(cc3oc(C)cc32)c1=O` the Potency was inconclusive: 10 µM [cytotoxic, partial curve].
With `O=C(Nc1scc(-c2ccccc2)c1C(=O)O)c1ccco1` the Potency was inconclusive: 12.6 µM [cytotoxic, single point].
With `CCOc1ccc(S(=O)(=O)N(C(=O)c2ccncc2)c2ccc3oc(C)c(C(=O)OC)c3c2)cc1` the “activity change, negative = cell killing” value was inactive: 7.31%.
In the case of `COc1ccc(O)c(-c2c(-c3ccc(Cl)cc3)n[nH]c2C)c1`, the Potency is reported as inconclusive: 31.6 µM [cytotoxic, single point].
In the case of `O=C(N[C@@]1(C(=O)O)C[C@@H]1c1ccccc1)c1ccccc1`, the activity change, negative = cell killing is reported as inactive: -22% [at 9.22 µM].
With `Cc1ccc(NC(=O)Cn2c(-c3cncs3)nc3ccccc32)cc1Br` the “activity change, negative = cell killing” value was inactive: -21.4%.
For `COc1ccc(-n2ncc3c(NCC(C)C)ncnc32)cc1`, the Potency was inconclusive: 10 µM [cytotoxic, partial curve].
With `Cc1ccc(-c2nc3cc(C)ccc3o2)cc1` the Potency was inconclusive: 10 µM [cytotoxic, partial curve].
